The other results are listed elsewhere or left out.
B1: chr5:82277714:82277885:-|CDS|ENSG00000186468|unk|FALSE|unique (ssRNA)
RNA: GGGAGUUCUACAGUCCGACGAUCAACUAAAAUAUUUAAUUUUUAGGCAAGUGUCGUGGACUUCGUACUGCUAGGAAGCUCCGUAGUCACCGACGAGACCAGAAGUGGCAUGAUAAACAGUAUAAGAAAGCUCAUUUGGGCACACAACAGAGGAUUGAGCAUCA
B2: ENSG00000070961:be:win_4001|3pUTR|ENSG00000070961|bound_else_gene|NA|bound_elsewhere_windowed (ssRNA)
RNA: GGGAGUUCUACAGUCCGACGAUCAGUAAAACUGGGCAAGACAAAGAGCCCUGGAUCGUUGAAUUGAUAGUUUAAUUUCUGCUGUUGGCUGUUAAUAAUUUGGAUUAUUUAUGUUUAUAAAUGAUACAGAUCUGUUUACAAGGUCAACAGAGGAUUGAGCAUCA
B3: chr15:85581792:85581893:+|CDS|ENSG00000170776|unk|total|mutant (ssRNA)
RNA: GGGAGUUCUACAGUCCGACGAUCUGCCCAGGACGCACCUCUGCCUAAGGGGGCAGACUUGACCGAGGAGGCUGCCAGCCGUACCGUGGAUGCUGUCAUCGAACAAGUCAAGGCCGCUGGAGCACUGCUUACUGAGGGGGAGGCCAACAGAGGAUUGAGCAUCA
B4: chr10:116062369:116062470:-|3pUTR|ENSG00000151892|msi1|FALSE|unique (ssRNA)
RNA: GGGAGUUCUACAGUCCGACGAUCCUUUUUUCACUUCAAAAUGUUUUCAAGGGAAAUUCAGCAGACACCCAACUGUAUUUAAUUAGUGAAAAGAUCUAUAAAGACUCUUACUUUGAAUAAACACAUUAAGUAAGUGUGUCAAAACAACAGAGGAUUGAGCAUCA
B5: ENSG00000136451:be:win_1451|CDS_3pUTR|ENSG00000136451|bound_else_gene|NA|bound_elsewhere_windowed (ssRNA)
RNA: GGGAGUUCUACAGUCCGACGAUCCUCCAAUGAAUCUACCCACACCUAUGACAUUAGCCGCCCCUCUCAAUAUAGCAAUGAGACCUGUAGAGAGCAUGCCUUUCUUGCCCCAAGCUUUGCCUACAUCACCGCCUUGGUAAACAGCAACAGAGGAUUGAGCAUCA
B6: chr12:107752058:107752159:-|CDS|ENSG00000110851|unk|total|mutant (ssRNA)
RNA: GGGAGUUCUACAGUCCGACGAUCUAACUCUAUAAAUGUUGAUGGUAAUACAGCAUUAUCUAUCACCAAUAACCCUUCAGCACCCGAUCCCUAUCAGUCCAAUGGAAAUGUUGGAUCCGAACCAGGCAUUGUUUCAACCGACUCCAACAGAGGAUUGAGCAUCA
B7: chrX:120253675:120253799:+|CDS|ENSG00000177485|unk|total|mutant (ssRNA)
RNA: GGGAGUUCUACAGUCCGACGAUCUAAAAUUGUUCGUGUCCGAUCAGAUUUGCUUGAUGAGUUAAUUAAAUCAGGGCAGUUAUCCGGAGUGAAAUUUACCGCAGAGCUUGGUGUCCCAUUGUCACAGGUUAAAAGCAUCUCAGGCAACAGAGGAUUGAGCAUCA
B8: chr17:3448806:3449149:-|CDS|ENSG00000141255|control|control|control (ssRNA)
RNA: GGGAGUUCUACAGUCCGACGAUCAACCGAGCUACUCAGACAAACACAUUCAUCAAAAAUAUCUGGCUGCACAAUGAGAGGGCUAGACAAAAACAGUGCACUACAGACACUUAAGCCCAAUUUUCAACAAAAUCAAUAUAAGAACAACAGAGGAUUGAGCAUCA
B9: ENSG00000107863:be:win_6401|3pUTR|ENSG00000107863|bound_else_gene|NA|bound_elsewhere_windowed (ssRNA)
RNA: GGGAGUUCUACAGUCCGACGAUCCUUUUAAUACAGUUUUUGAGUUUUGUGUGACUUGAAUUUUUAAUCUUUCUGUAAAAUACGUAACUUAAAUGAACAUAUUAAAUGUGUAUCUUUUCUUCAGAUACCAGAUUUGAUAUAAUGCAACAGAGGAUUGAGCAUCA
B10: ENSG00000136451:be:win_1351|CDS|ENSG00000136451|bound_else_gene|NA|bound_elsewhere_windowed (ssRNA)
RNA: GGGAGUUCUACAGUCCGACGAUCCCAUUAUCCAUGACCUCUCCUUUAACACUCACUACCCCAGUCAACCUCCCCACCCCCGUCACUGCCCCAGUGAAUAUAGCACACCCUGUCACCAUCACAUCUCCAAUGAAUCUACCCACACAACAGAGGAUUGAGCAUCA
B11: chr10:24583932:24584033:-|3pUTR|ENSG00000107863|unk|FALSE|bound_elsewhere (ssRNA)
RNA: GGGAGUUCUACAGUCCGACGAUCAACAAAAGUGCCUCAUCAUAAAAAUACAGUUGGUUUUUAGGGUGCCAUAUUGUUAAAAUUAGAUAACUUACUUACAUUGAAUAAACGAAUGCGUUUUAUUGGUAACAGAUAUCAUUACAUCAACAGAGGAUUGAGCAUCA
B12: chr7:36452941:36453042:+|3pUTR|ENSG00000011426|msi1|total|mutant (ssRNA)
RNA: GGGAGUUCUACAGUCCGACGAUCGUCUUGAAGCAGCAACGUCUUUCAGGGGUUGGAGACAGAAACCCAUUCUCCAAUCUCAGCCGUUUUUUCGAAAGGCUGUGAUCAUUUAUUGAUCGUGAUAUGACUUGUUACCCGGGUACUCAACAGAGGAUUGAGCAUCA
B13: ENSG00000198589:be:win_8501|CDS_3pUTR|ENSG00000198589|bound_else_gene|NA|bound_elsewhere_windowed (ssRNA)
RNA: GGGAGUUCUACAGUCCGACGAUCUUGUGCUAUUUUACAACGACUUUAACCGGUGGCAUCAUGAAUACCAAACCCGCUACUGAUGGUGACAGCUGUACAUCAACUCUGCCCCUAGGAUGAGCAGAAGUACCUGGAGCAUCAUUCCAACAGAGGAUUGAGCAUCA
B14: chr1:93361585:93361687:+|3pUTR|ENSG00000117505|unk|total|mutant (ssRNA)
RNA: GGGAGUUCUACAGUCCGACGAUCUUUAACUUGCCGUUACCGUUUACUUAUUGUUUUCCGAAUUACUUUUACAUUUUCCCAACCCGAUGGCCCCGAGUCCAACAUUACCUUUUGAGAUGACAUUAUUGUCUCCAUAAUUGAGUGCAACAGAGGAUUGAGCAUCA
B15: chr10:110898111:110898227:+|3pUTR|ENSG00000150593|unk|total|mutant (ssRNA)
RNA: GGGAGUUCUACAGUCCGACGAUCAUAAGAACUCUUGCAGUCUCCGAUGUUAUAAAAAUAUAUAUCUGAAUUGUAAGAGUUGUCCGCACAAGUUUUUUUUUUUUUUUUUUUUAAGCACUUGUUUUGGGUACAAGGCAUUUCUGACAACAGAGGAUUGAGCAUCA
B16: ENSG00000136451:be:win_3601|3pUTR|ENSG00000136451|bound_else_gene|NA|bound_elsewhere_windowed (ssRNA)
RNA: GGGAGUUCUACAGUCCGACGAUCCCUGGAUUGGGAGGCACAGUGGCCACAUUUGGAGGAAGUUCACAUUUCCUGGCAUGCAGACCCAAAACUGGGUUCUGGCUCUGCCUGCUGGGAUCUGUUAUCUCUGGUGGGCUGGCAGUCCAACAGAGGAUUGAGCAUCA
B17: chr12:76028505:76028606:-|3pUTR|ENSG00000139289|msi1|total|mutant (ssRNA)
RNA: GGGAGUUCUACAGUCCGACGAUCAAGUCUUGGUCAGUAUUUUUCCAGCAUUUAAAUUGAAACGGUCAGUAUCCGACCACUGCCCGGUUAUGCCGUCAAGAAAUAAAAACCGAAUUACAUGCUACAGAUGUCUUUAUUCUCCUUCAACAGAGGAUUGAGCAUCA
B18: chr5:103087900:103088172:-|CDS|ENSG00000145723|control|control|control (ssRNA)
RNA: GGGAGUUCUACAGUCCGACGAUCAAGGAUCGUGAACUAUUAGAAUAUAGAAAUACGAAAAUCUCUCCAUUGAUAGACGAUCAUAGUUCUCUUGAAAAGCAGACUUUCAGUCUGUUGGACUCUUCAAACCAGGUUCUUGAAUACCAACAGAGGAUUGAGCAUCA
B19: chr1:151048051:151048152:+|CDS|ENSG00000143443|unk|FALSE|unique (ssRNA)
RNA: GGGAGUUCUACAGUCCGACGAUCGACCGCCUGGCUGGACCAGCGGCUGCCGAGCUCUUGGCCGCCACGGUGUCCACCGGCUUUAGCCGGUCGUCCGCCAUUAACGAGGAGGAUGGGUCUUCAGAAGAGGGGGUUGUGAUUAAUCAACAGAGGAUUGAGCAUCA
B20: chr11:20121310:20121411:+|3pUTR|ENSG00000166833|msi1|FALSE|bound_elsewhere (ssRNA)
RNA: GGGAGUUCUACAGUCCGACGAUCAUUGUAACAUAGAAAUUGUAAAUAAUUGAUUAAAGUGCUGCAUUUUGAUGAAUUUUUUCUAGCCAUUUUUAAAGAGAAAACUAGGAAUUGAGUAUUUUGUGUACGGUAUGUUUCCAUCCUCAACAGAGGAUUGAGCAUCA
B21: chr2:224001733:224001845:-|CDS|ENSG00000135919|unk|total|mutant (ssRNA)
RNA: GGGAGUUCUACAGUCCGACGAUCGGCCUCUGUGACGCUGCCUUCCAUCUGCUCCCACUUCAAUCCUCUGUCUCUCGAGGAACCCGGCUCCAACACGGGGAUCCAGGUUUUCAAUCAGAUUGUGAAGUCGAGGCCUCAUGACAACAACAGAGGAUUGAGCAUCA
B22: chr14:23097777:23097878:+|CDS|ENSG00000179933|msi1|FALSE|unique (ssRNA)
RNA: GGGAGUUCUACAGUCCGACGAUCGAUGAAGUGUAUUCUUCACUGGUUUGCCAAUUGGUCAGGUCCCCAGCGUGAACGUUUCCUAGAGGACCUGGUAGCUAAGGCAGUGCCAGAAAAAUUACAACCACUGCUGGAUAGUCUGGACAACAGAGGAUUGAGCAUCA

These binders were tested against MSI1 full-length (mouse, UniProt Q61474 1-362) (assay: nsRBNS (natural sequence RNA bind-n-seq); RBNS binding buffer (assumed for nsRBNS): 25 mM Tris pH 7.5, 150 mM KCl, 3 mM MgCl2, 0.01% Triton X-100, 500 ug/ml BSA, 20 U/ml SUPERase-In, 4 C; UNK is unkempt and MSI1 is Musashi-1; names of the RNAs are library labels; protein concentration not given here; high values mean tight binding).
Sequence of UniProt Q61474 (Q61474 whole entry): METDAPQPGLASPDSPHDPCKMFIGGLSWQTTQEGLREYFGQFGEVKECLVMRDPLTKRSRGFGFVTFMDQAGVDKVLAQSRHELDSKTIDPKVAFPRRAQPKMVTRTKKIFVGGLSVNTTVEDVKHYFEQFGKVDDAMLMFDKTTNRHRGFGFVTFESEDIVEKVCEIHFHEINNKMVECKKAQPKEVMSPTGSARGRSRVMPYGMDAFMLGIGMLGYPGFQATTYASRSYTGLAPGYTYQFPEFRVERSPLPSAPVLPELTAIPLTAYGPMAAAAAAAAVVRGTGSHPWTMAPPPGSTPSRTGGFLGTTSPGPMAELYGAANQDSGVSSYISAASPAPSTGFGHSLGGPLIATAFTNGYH
With B1 the binding signal was 0.842 enrichment R. B2 was tested, and the binding signal was 0.47 enrichment R. B3 was tested, and the binding signal was 0.526 enrichment R. Work on B4 yielded a binding signal of 0.713 enrichment R. With B5 the binding signal was 2.88 enrichment R. Work on B6 yielded a binding signal of 0.32 enrichment R. With B7 the binding signal was 0.298 enrichment R. B8 gave a binding signal of 0.471 enrichment R. B9 was tested, and the binding signal was 0.392 enrichment R. B10 was tested, and the binding signal was 2.42 enrichment R. B11 showed a binding signal of 1.22 enrichment R. With B12 the binding signal was 0.402 enrichment R. Work on B13 yielded a binding signal of 0.658 enrichment R. For B14, the binding signal was 1.55 enrichment R. B15 was tested, and the binding signal was 0.994 enrichment R. B16 was tested, and the binding signal was 0.459 enrichment R. B17 was tested, and the binding signal was 0.319 enrichment R. Work on B18 yielded a binding signal of 2.62 enrichment R. In the case of B19, the binding signal is reported as 0.497 enrichment R. B20 was tested, and the binding signal was 2.14 enrichment R. In the case of B21, the binding signal is reported as 0.408 enrichment R. B22 gave a binding signal of 0.326 enrichment R.
